Test results: PubChem BioAssay AID1963576 (National Center for Advancing Translational Sciences (NCATS), 2024)
The whole screen tested about 46,000 compounds, of which about 60 (0.1%) were called active. Roughly 3% stayed inconclusive and do not appear here. The call rests on the fitted dose curve; in most records, active means well fitted inhibition curve with a large enough effect; inconclusive means small, poorly fitted or top-dose-only effect; inactive means no such curve, though single readings can be large or run the other way. This is one part of the list.

Assay: Primary qHTS assay for Inhibitors of ovarian cancer metastasis using an organotypic tumor microenvironment (TME) model. Further: nearly all actives have a fitted effect of over 65% in size.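 On activity change, negative = inhibition: plate controls were DMSO wells for no effect and tomatine positive control wells for full effect.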
Conditions: SKOV3ip1-GFP adhesion/invasion on 3D omental model, fluorescence; series mostly up to 45.8 µM; activity change, negative = inhibition: at the top concentration
Method in brief: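 Primary human omental fibroblast/mesothelial 3D culture pre-formed 48 h. SKOV3ip1-GFP cells added with compounds (0.36-46 umol/L), incubated 2 h RT/16 h 37 C, fixed; GFP cells quantified at 488/509 nm.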

Activity change, negative = inhibition, inactive:
Cc1c(C(=O)Nc2ccc(F)c(F)c2)oc2ccc(S(=O)(=O)N(C)C3CCCCC3)cc12 30.1%, CCOC(=O)c1ccc(NC(=O)C(C)N(c2ccc(OCC)cc2)S(C)(=O)=O)cc1 (stereo not given) 44.5%, COc1ccc(CNC(=O)c2cc3c(=O)n4cccc(C)c4nc3s2)cc1 -4.35%, CCOC(=O)c1[nH]c(C)c(CCC(=O)NC(C)c2ccccc2)c1C (stereo not given) 3.65%, Cc1ccc(-n2c(=O)c3c(cnn3C)n(CC(=O)Nc3c(C)cccc3C)c2=O)cc1 -3.13%, COc1ccc(NC(=O)c2oc3c(c2C)-c2nn(Cc4ccccc4Cl)cc2CC3)cc1OC -8.68%, CCOC(=O)C1=C(CN2CCN(c3cccc(OC)c3)CC2)NC(=O)NC1c1ccc(OC)cc1 (stereo not given) 2.35%, COc1ccc(NS(=O)(=O)c2ccc3c(c2)CC(C)N3C(C)=O)c(OC)c1 (stereo not given) 8.08%, COc1cccc(-c2nc(CS(=O)(=O)CC(=O)NCCc3ccc(OC)c(OC)c3)c(C)o2)c1 32.3%, CC(CNC(=O)Cn1c(-c2cccs2)cc2ccccc21)c1ccccc1 (stereo not given) -0.184%, COC(=O)Cc1c(C)c2ccc3c(c2oc1=O)CN(Cc1ccccc1OC)CO3 -14.5%, COc1cccc(C(=O)Nc2c(C(=O)c3ccc(F)cc3)oc3ccccc23)c1 -8.42%, Cc1oc(-c2ccc(Cl)cc2)nc1CSCC(=O)NCc1ccccc1Cl 22.1%, COc1cc(C2c3c(oc4ccc(C)cc4c3=O)C(=O)N2Cc2ccccc2)ccc1O (stereo not given) 0.735%, Cc1ccccc1Nc1cc(C(=O)NCCc2ccc(Cl)cc2)c2ccccc2n1 -9.96%, Cc1ccc2c(CC(=O)N(Cc3ccc(Cl)cc3)Cc3ccco3)coc2c1 2.65%, CCC(=O)N1CCCc2cc(S(=O)(=O)N3CCC(C(=O)Nc4ccccc4CC)CC3)ccc21 1.27%, O=C(Nc1cccc(F)c1)c1cccc2c1C(=O)N(C1CCCCC1)C2 2.71%, Cc1ccc(Cl)cc1N1CCN(CCCNC(=O)c2nnc(Cc3cccc(Cl)c3)o2)CC1 -25.2%, CCCOc1ccc(C2c3c(-c4ccccc4O)n[nH]c3C(=O)N2CCCOCC)cc1OCC (stereo not given) 3.8%, Cc1cc(C)cc(Nc2nnc(-n3nc(C)cc3C)c3ccccc23)c1 1.32%, CN1CCc2nc3sc(C(=O)Nc4cccc(C#N)c4)c(N)c3cc2C1 5.57%, COc1ccccc1NC(=O)Cn1c(=O)n(-c2cccc(Cl)c2)c(=O)c2c1c1cc(C)ccc1n2C -0.865%, CC(C)(S)[C@@H](N)C(=O)O 5.55%, CCCOc1ccc(NC(=O)CC2C(=O)N(c3ccc(Cl)cc3)C(=O)N2CCc2ccncc2)cc1 (stereo not given) 5.78%, Cc1cccc(OCC(=O)Nc2ccc(Cl)c(-c3nc4ccccc4[nH]3)c2)c1 1.91%, CCN1CCN(Cc2c(O)ccc3oc(C)c(C(=O)Nc4ccc(C)cc4C)c23)CC1 14.3%, CCOC(=O)c1ccc(CN(Cc2ccccc2C)S(=O)(=O)c2ccc(F)c(C(=O)Nc3cccc(OC)c3)c2)cc1 -2.1%, O=C1CC(c2nnc(Cc3ccccc3Cl)o2)CN1c1ccccc1 (stereo not given) 2.46%, Cc1ccc(-c2cc3c(n2-c2ccccc2F)CC(C)(C)CC3=O)cc1 3.28%, O=C(CC1C(=O)N(c2ccccc2)C(=O)N1Cc1ccc2c(c1)OCO2)Nc1ccccc1 (stereo not given) 12%, COc1ccc(C)cc1NC(=O)N1CCN(c2cc(-c3noc(C)n3)ccc2C)CC1 -1.43%, Cc1ccc(NC(=O)c2sc3nc(-c4ccc(F)cc4)ccc3c2N)cc1F -23.7%, CCOC(=O)c1cnc2ccc(C)cc2c1NCCc1ccc(OC)c(OC)c1 3.3%, COc1ccc(NC(=O)c2oc3ccccc3c2NC(=O)Cc2cccs2)cc1 -15.2%, O=C(CN1C(=O)CSc2ccc(S(=O)(=O)N3CCCC3)cc21)NCc1ccc(Cl)cc1 -1.36%, COc1ccc(NC(=O)CN2C(=O)COc3ccc(S(=O)(=O)N4CCCCC4)cc32)cc1Cl -25.2%, CCC1CCCCN1CCCNC(=O)c1ccc2c(c1)N(Cc1ccc(Cl)cc1)C(=O)c1ccccc1S2(=O)=O (stereo not given) -19.4%, COc1ccccc1N1CCN(c2ccc(-c3nc(-c4ccccc4)no3)cc2[N+](=O)[O-])CC1 1.2%, O=C(Cn1cc(C(=O)C2CC2)c2ccccc21)Nc1ccc(Br)cc1 1.14%, CC(=O)c1ccc(NC(=O)CCCc2nc(-c3cccc(C)c3)no2)cc1 -11.6%, Cc1ccc(C)c(Cn2c(=O)n(CCCCCC(=O)NCc3ccc4c(c3)OCO4)c(=O)c3sccc32)c1 -4.38%, CN(C(=O)C(=O)Nc1ccc2nc3n(c(=O)c2c1)CCCCC3)c1cccc(C(F)(F)F)c1 1.79%, Cc1onc(-c2ccc(F)cc2F)c1C(=O)Nc1cccc(C(F)(F)F)c1 -15.7%, CCc1ccc(NC(=O)Cn2c(=O)oc3cc(S(=O)(=O)N4CCCCCC4)ccc32)cc1 -7.86%, CC(C)Sc1ncc(Cl)c(C(=O)Nc2nnc(C(C)C)s2)n1 -12.2%, CCCOc1ccc(C2C(=O)N(C3CCC(C)CC3)CC(=O)N2CCC2=CCCCC2)cc1OC (stereo not given) -5.52%, O=C(Nc1ccccc1)c1cccc(S(=O)(=O)Nc2cccc(F)c2)c1 -17.6%, CCc1ccc(CNC(=O)c2cc(-c3ccc(Br)s3)nc3ccccc23)cc1 -8.52%, COc1ccc(CCNC(=O)c2c(C)nn(-c3ccc(F)cc3)c2-n2cccc2)cc1OC -14.7%, Cc1ccc2onc(CC(=O)N(C)c3ccccc3)c2c1 3.5%, Cc1ccc(S(=O)(=O)N2CCOCC2)cc1C(=O)Nc1ccccc1C(=O)O -1.4%

outcome, inactive:
O=C(Nc1cc2ccc(O)cc2oc1=O)c1ccc(F)cc1, Cn1c(=O)c2c(n3ncnc13)NC(=O)CC2c1cccc(F)c1 (stereo not given), Cc1ccc(C(=O)Nc2nc(-c3nnn(-c4cccc(Cl)c4C)c3C)ns2)cc1C, CCC(=O)N1CCc2cc(Br)cc(S(=O)(=O)N3CCCC(C(=O)NCc4ccc(OC)cc4)C3)c21 (stereo not given), CCc1ccccc1NC(=O)CSc1ncc(S(=O)(=O)c2ccccc2)c(=O)[nH]1, Cc1c(C)n(Cc2ccc(F)cc2)c2ccc(C(=O)Nc3ccc(Cl)cc3)cc12, COc1ccc(OC)c(-c2cc(C(=O)NC(C)c3ccccc3)no2)c1 (stereo not given), O=S(=O)(Nc1ccc2nc(-c3cccc(Cl)c3)oc2c1)c1ccccc1
